Laboratory results taken from the supplement of paper PMC12355420.
Where a name gives a salt, the structure may show the parent alone. The list shows a part of the results. Cut-off read from the data, not from the text of the source: active = 0.5 or less and inactive = the rest. Repeats are few or missing, and single values can be far off.

Legend:
Conditions in all cases: 50 µM; 24 h
[1] = test system: HeLa VPS33A reporter cells; experiment: relative cell viability (CellMask signal) vs DMSO (fraction of DMSO); higher = less cytotoxic;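 note: primary screen of an FDA-approved drug library in HeLa reporter cells in 96-well format, CellMask signal normalized to DMSO-treated wells set as 1, under 0.5 deemed highly cytotoxic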
[2] = test system: HeLa VPS33A R498W KI + HA-SDC1-FLAG; experiment: relative GAG core protein HA-SDC1 amount per cell number vs DMSO (fraction of DMSO); higher = more SDC1 (GAG core protein);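 note: HA-SDC1 level read out by In-Cell Western staining with an anti-HA antibody against the N-terminal tag, screening FDA-approved library drugs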
[3] = test system: HeLa VPS33A KO + NLuc-VPS33A R498W; experiment: relative mutant VPS33A R498W amount (NanoLuc luminescence) vs DMSO (fraction of DMSO); HeLa model of a glycosaminoglycan (GAG) storage disease; KI is knock-in and KO knock-out; SDC1 is syndecan 1; higher = higher mutant VPS33A level;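 note: screen of an FDA-approved drug library, NanoLuc luminescence read after lysing the treated cells, taken as a measure of mutant VPS33A protein stability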

SMILES: Cc1ccc(C(=O)C(C)CN2CCCCC2)cc1 (stereo unspecified) [Tolperisone HCl]
- relative cell viability [1]: 0.983
- relative GAG core protein HA-SDC1 amount per cell number [2]: inactive: 0.568
- relative mutant VPS33A R498W amount [3]: 0.649

SMILES: NS(=O)(=O)c1cc2c(cc1Cl)NCNS2(=O)=O [Hydrochlorothiazide]
- relative cell viability [1]: 0.998
- relative GAG core protein HA-SDC1 amount per cell number [2]: inactive: 0.863
- relative mutant VPS33A R498W amount [3]: 1.11

SMILES: Cc1cccc(C)c1OCC(=O)N[C@@H](Cc1ccccc1)[C@@H](O)C[C@H](Cc1ccccc1)NC(=O)[C@H](C(C)C)N1CCCNC1=O [Lopinavir]
- relative cell viability [1]: 0.618
- relative GAG core protein HA-SDC1 amount per cell number [2]: inactive: 0.565
- relative mutant VPS33A R498W amount [3]: 0.504

SMILES: CN(C)C(=N)NC(=N)N [Metformin HCl]
- relative cell viability [1]: 0.963
- relative GAG core protein HA-SDC1 amount per cell number [2]: inactive: 0.902
- relative mutant VPS33A R498W amount [3]: 1.26

SMILES: NNc1nncc2ccccc12 [Hydralazine HCl]
- relative cell viability [1]: 1.03
- relative GAG core protein HA-SDC1 amount per cell number [2]: inactive: 0.799
- relative mutant VPS33A R498W amount [3]: 1.07

SMILES: C[C@H]1COc2c(N3CCN(C)CC3)c(F)cc3c(=O)c(C(=O)O)cn1c23 [Levofloxacin]
- relative cell viability [1]: 1.05
- relative GAG core protein HA-SDC1 amount per cell number [2]: inactive: 0.835
- relative mutant VPS33A R498W amount [3]: 1.07

SMILES: CC(C)(C)C(=O)OCOP(=O)(COCCn1cnc2c(N)ncnc21)OCOC(=O)C(C)(C)C [Adefovir Dipivoxil]
- relative cell viability [1]: 1.1
- relative GAG core protein HA-SDC1 amount per cell number [2]: inactive: 0.59
- relative mutant VPS33A R498W amount [3]: 1.68

SMILES: COC(=O)Nc1nc2cc(C(=O)c3ccccc3)ccc2[nH]1 [Mebendazole]
- relative cell viability [1]: 0.734
- relative GAG core protein HA-SDC1 amount per cell number [2]: active: 0.247
- relative mutant VPS33A R498W amount [3]: 0.477

SMILES: CN1CCC(OC(c2ccccc2)c2ccccc2)CC1 [Diphenylpyraline HCl]
- relative cell viability [1]: 1.13
- relative GAG core protein HA-SDC1 amount per cell number [2]: inactive: 1.32
- relative mutant VPS33A R498W amount [3]: 0.437

SMILES: CCCc1cc(C(N)=S)ccn1 [Protionamide]
- relative cell viability [1]: 1.03
- relative GAG core protein HA-SDC1 amount per cell number [2]: inactive: 0.885
- relative mutant VPS33A R498W amount [3]: 0.849

SMILES: CC(C)=CCC/C(C)=C/CC/C(C)=C/CC/C(C)=C/CC1=C(C)C(=O)c2ccccc2C1=O [Menaquinone 4]
- relative cell viability [1]: 0.983
- relative GAG core protein HA-SDC1 amount per cell number [2]: inactive: 0.758
- relative mutant VPS33A R498W amount [3]: 1.45

SMILES: CO/N=C(\C(=O)N[C@@H]1C(=O)N2C(C(=O)O)=C(COC(C)=O)CS[C@H]12)c1csc(N)n1 [Cefotaxime (sodium salt)]
- relative cell viability [1]: 0.978
- relative GAG core protein HA-SDC1 amount per cell number [2]: inactive: 0.857
- relative mutant VPS33A R498W amount [3]: 1.64

SMILES: C[C@H](CCC(=O)NCCS(=O)(=O)O)[C@H]1CC[C@H]2[C@@H]3[C@@H](O)C[C@@H]4C[C@H](O)CC[C@]4(C)[C@H]3CC[C@]12C [Tauroursodeoxycholic Acid]
- relative cell viability [1]: 1.11
- relative GAG core protein HA-SDC1 amount per cell number [2]: inactive: 0.943
- relative mutant VPS33A R498W amount [3]: 1.55

SMILES: CN(C)CCCN1c2ccccc2CCc2ccccc21 [Imipramine (hydrochloride)]
- relative cell viability [1]: 0.963
- relative GAG core protein HA-SDC1 amount per cell number [2]: inactive: 0.816
- relative mutant VPS33A R498W amount [3]: 0.352

SMILES: CCCCCCCCCCCCCCCC(=O)OCC=C(C)C=CC=C(C)C=CC1=C(C)CCCC1(C)C [Retinyl (Vitamin A) Palmitate]
- relative cell viability [1]: 0.957
- relative GAG core protein HA-SDC1 amount per cell number [2]: inactive: 0.725
- relative mutant VPS33A R498W amount [3]: 1.45

SMILES: CN1CCC(=C2c3ccccc3CCc3sccc32)CC1 [Pizotifen]
- relative cell viability [1]: 1.29
- relative GAG core protein HA-SDC1 amount per cell number [2]: inactive: 0.914
- relative mutant VPS33A R498W amount [3]: 0.673

SMILES: COc1ccc2cc([C@H](C)C(=O)O)ccc2c1 [(S)-Naproxen]
- relative cell viability [1]: 0.902
- relative GAG core protein HA-SDC1 amount per cell number [2]: inactive: 0.873
- relative mutant VPS33A R498W amount [3]: 1.25

SMILES: CCCN(CCC)CCc1cccc2c1CC(=O)N2 [Ropinirole HCl]
- relative cell viability [1]: 0.987
- relative GAG core protein HA-SDC1 amount per cell number [2]: inactive: 0.806
- relative mutant VPS33A R498W amount [3]: 1.06

SMILES: Cc1ccc(-n2nc(C(C)(C)C)cc2NC(=O)Nc2ccc(OCCN3CCOCC3)c3ccccc23)cc1 [BIRB 796 (Doramapimod)]
- relative cell viability [1]: 0.961
- relative GAG core protein HA-SDC1 amount per cell number [2]: inactive: 0.685
- relative mutant VPS33A R498W amount [3]: 0.236

SMILES: CCOC(=O)CC(=O)N1CCSC1COc1ccccc1OC (stereo unspecified) [Moguisteine]
- relative cell viability [1]: 0.91
- relative GAG core protein HA-SDC1 amount per cell number [2]: inactive: 0.991
- relative mutant VPS33A R498W amount [3]: 1.56

SMILES: Nc1nc(=O)[nH]cc1F [Flucytosine]
- relative cell viability [1]: 1.12
- relative GAG core protein HA-SDC1 amount per cell number [2]: inactive: 1.08
- relative mutant VPS33A R498W amount [3]: 1.02

SMILES: Cc1cc(C2CCCCC2)n(O)c(=O)c1 [Ciclopirox]
- relative cell viability [1]: 0.938
- relative GAG core protein HA-SDC1 amount per cell number [2]: active: 0.45
- relative mutant VPS33A R498W amount [3]: 2.07

SMILES: c1cc(CN2CCCNCCNCCCNCC2)ccc1CN1CCCNCCNCCCNCC1 [Plerixafor 8HCl (AMD3100 8HCl)]
- relative cell viability [1]: 1.03
- relative GAG core protein HA-SDC1 amount per cell number [2]: inactive: 1.4
- relative mutant VPS33A R498W amount [3]: 0.942

SMILES: Cc1cn([C@H]2C=C[C@@H](CO)O2)c(=O)[nH]c1=O [Stavudine (d4T)]
- relative cell viability [1]: 1.02
- relative GAG core protein HA-SDC1 amount per cell number [2]: inactive: 0.931
- relative mutant VPS33A R498W amount [3]: 1.26

SMILES: N=C(N)NC(=O)c1nc(Cl)c(N)nc1N [Amiloride HCl]
- relative cell viability [1]: 1.2
- relative GAG core protein HA-SDC1 amount per cell number [2]: inactive: 0.622
- relative mutant VPS33A R498W amount [3]: 0.876

SMILES: OC[C@@H](O)[C@H](O)[C@@H](O)CO [Xylitol]
- relative cell viability [1]: 1.09
- relative GAG core protein HA-SDC1 amount per cell number [2]: inactive: 0.965
- relative mutant VPS33A R498W amount [3]: 1.37

SMILES: CCC1=C(C)CN(C(=O)NCCc2ccc(S(=O)(=O)NC(=O)N[C@H]3CC[C@H](C)CC3)cc2)C1=O [Glimepiride]
- relative cell viability [1]: 1.15
- relative GAG core protein HA-SDC1 amount per cell number [2]: inactive: 1.03
- relative mutant VPS33A R498W amount [3]: 1.29
